The term EC50 denotes the concentration that produces a half-maximal response.

One experiment concerns A431 cells. Put plainly: cells. The following applies: Homo sapiens, A-431, 24 h, read-out: A431 viability EC50.
The subject of the next experiment is H929 cells. Put plainly: cells. Particulars: Homo sapiens, NCI-H929, 24 h, read-out: H929 viability EC50.

Consider `Fc1cccc(Cn2cnc3ccc(-c4cc(N[C@H]5CC[C@H](NCC6CCCO6)CC5)ncc4Cl)cc32)c1` (relative stereo) [Example 233, trans-N-{5-chloro-4-[1-(3-fluorobenzyl)-1H-benzimidazol-6-yl]pyridin-2-yl}-N′-(tetrahydrofuran-2-ylmethyl)cyclohexane-1,4-diamine], for which, in the experiment with A431 cells, the EC50 was 8 nM.
Regarding `COCC(C)N[C@H]1CC[C@H](Nc2cc(-c3ccc4ncn(Cc5cccc(F)c5)c4c3)c(Cl)cn2)CC1` (relative stereo) [Example 237, trans-N-{5-chloro-4-[1-(3-fluorobenzyl)-1H-benzimidazol-6-yl]pyridin-2-yl}-N-(1-methoxypropan-2-yl)cyclohexane-1,4-diamine], the EC50 with A431 cells came out at 15 nM; in the experiment with H929 cells it was 75 nM.
On to `O=C(Nc1cc(-c2ccc3c(c2)N(Cc2cccc(F)c2)CC3)c(Cl)cn1)[C@@H]1CCCNC1` [Example 1, (3R)—N-{5-chloro-4-[1-(3-fluorobenzyl)-2,3-dihydro-1H-indol-6-yl]pyridin-2-yl}piperidine-3-carboxamide], for which the EC50 amounted to 1600 nM in the experiment on A431 cells and 530 nM with H929 cells.
For `N[C@H]1CC[C@H](Nc2cc(-c3ccc4ncn(Cc5cccc(F)c5)c4c3)c(Cl)cn2)CC1` [Example 8, trans-N-{5-chloro-4-[1-(3-fluorobenzyl)-1H-benzimidazol-6-yl]pyridin-2-yl}cyclohexane-1,4-diamine], in that order: 17 nM and 120 nM.
For `O[C@H]1CC[C@H](Nc2cc(-c3ccc4ncn(Cc5cccc(F)c5)c4c3)c(Cl)cn2)CC1` [Example 11, trans-4-({5-chloro-4-[1-(3-fluorobenzyl)-1H-benzimidazol-6-yl]pyridin-2-yl}amino)cyclohexanol], the EC50 in the experiment with A431 cells worked out at 29 nM.
On to `O=C(Nc1cc(-c2ccc3ncn(Cc4ccc(F)cc4)c3c2)c(Cl)cn1)[C@@H]1CCCNC1` [Example 16, (3R)—N-{5-chloro-4-[1-(4-fluorobenzyl)-1H-benzimidazol-6-yl]pyridin-2-yl}piperidine-3-carboxamide], for which the results for the 50% effective concentration (EC50) with A431 cells and with H929 cells were 25 nM and 84 nM, respectively.
Consider `O=C(Nc1cc(-c2ccc3ncn(Cc4ccc(F)c(F)c4)c3c2)c(Cl)cn1)[C@@H]1CCCNC1` [Example 17, (3R)—N-{5-chloro-4-[1-(3,4-difluorobenzyl)-1H-benzimidazol-6-yl]pyridin-2-yl}piperidine-3-carboxamide], for which the EC50 was found to be 9 nM in the experiment with A431 cells and 73 nM in the experiment with H929 cells.
For the molecule `O=C(Nc1cc(-c2ccc3ncn(CCc4cccc(F)c4)c3c2)c(Cl)cn1)[C@@H]1CCCNC1` [Example 18, (3R)—N-(5-chloro-4-{1-[2-(3-fluorophenyl)ethyl]-1H-benzimidazol-6-yl}pyridin-2-yl)piperidine-3-carboxamide], the figures for the EC50 with A431 cells and in the experiment on H929 cells were 19 nM and 110 nM, respectively.
Regarding `O=C(Nc1cc(-c2ccc3ncn(Cc4ccccc4F)c3c2)c(Cl)cn1)[C@@H]1CCCNC1` [Example 21, (3R)—N-{5-chloro-4-[1-(2-fluorobenzyl)-1H-benzimidazol-6-yl]pyridin-2-yl}piperidine-3-carboxamide], the EC50 in the experiment with A431 cells came to 20 nM.
With `CS(=O)(=O)N[C@H]1CC[C@H](Nc2cc(-c3ccc4ncn(Cc5cccc(F)c5)c4c3)c(Cl)cn2)CC1` [Example 28, N-[trans-4-({5-chloro-4-[1-(3-fluorobenzyl)-1H-benzimidazol-6-yl]pyridin-2-yl}amino)cyclohexyl]methanesulfonamide], the EC50 turned out to be 290 nM in the experiment with A431 cells and 170 nM in the experiment with H929 cells.
For `CN1CCC(CCNc2cc(-c3ccc4ncn(Cc5cccc(F)c5)c4c3)c(Cl)cn2)CC1` [Example 44, 5-chloro-4-[1-(3-fluorobenzyl)-1H-benzimidazol-6-yl]-N-[2-(1-methylpiperidin-4-yl)ethyl]pyridin-2-amine], in that order: 71 nM and 260 nM.
For `Fc1cccc(Cn2cnc3ccc(-c4cc(NC5CC6(CCCNC6)C5)ncc4Cl)cc32)c1` (stereo not drawn) [Example 104, N-{5-chloro-4-[1-(3-fluorobenzyl)-1H-benzimidazol-6-yl]pyridin-2-yl}-6-azaspiro[3.5]nonan-2-amine], in that order: 29 nM and 82 nM.
For `Fc1cccc(Cn2cnc3ccc(-c4cc(NC5CC6(CCNCC6)C5)ncc4Cl)cc32)c1` [Example 105, N-{5-chloro-4-[1-(3-fluorobenzyl)-1H-benzimidazol-6-yl]pyridin-2-yl}-7-azaspiro[3.5]nonan-2-amine], in that order: 15 nM and 95 nM.
`Fc1cccc(Cn2cnc3ccc(-c4cc(NC5CC6(CCNC6)C5)ncc4Cl)cc32)c1` (stereo not drawn) [Example 109, N-{5-chloro-4-[1-(3-fluorobenzyl)-1H-benzimidazol-6-yl]pyridin-2-yl}-6-azaspiro[3.4]octan-2-amine]: the EC50 in the experiment with A431 cells is 26 nM; with H929 cells, 95 nM.
For `O=C(Nc1cc(-c2ccc3nnn(CCc4cccc(F)c4)c3c2)c(Cl)cn1)[C@@H]1CCCNC1` [Example 115, (3R)—N-(5-chloro-4-{1-[2-(3-fluorophenyl)ethyl]-1H-benzotriazol-6-yl}pyridin-2-yl)piperidine-3-carboxamide], in that order: 170 nM and 250 nM.
For `O=C(Nc1cc(-c2cc3c(cc2F)ncn3Cc2cccc(F)c2)c(Cl)cn1)[C@@H]1CCCNC1` [Example 135, (3R)—N-{5-chloro-4-[5-fluoro-1-(3-fluorobenzyl)-1H-benzimidazol-6-yl]pyridin-2-yl}piperidine-3-carboxamide], in that order: 11 nM and 110 nM.
For `C[C@H](c1cccc(F)c1)n1cnc2ccc(-c3cc(NC(=O)[C@@H]4CCCNC4)ncc3Cl)cc21` [Example 144, (3R)—N-(5-chloro-4-{1-[(1R)-1-(3-fluorophenyl)ethyl]-1H-benzimidazol-6-yl}pyridin-2-yl)piperidine-3-carboxamide], in that order: 6 nM and 48 nM.
For the molecule `CC(C(=O)Nc1cc(-c2ccc3ncn(Cc4cccc(F)c4)c3c2)c(Cl)cn1)n1ccccc1=O` (stereo not drawn) [Example 183, N-{5-chloro-4-[1-(3-fluorobenzyl)-1H-benzimidazol-6-yl]pyridin-2-yl}-2-(2-oxopyridin-1(2H)-yl)propanamide], the values for the EC50 with A431 cells and in the experiment on H929 cells were 31 nM and 50 nM, respectively.
For `O=C1CC(C(=O)Nc2cc(-c3ccc4ncn(Cc5cccc(F)c5)c4c3)c(Cl)cn2)C1` [Example 189, N-{5-chloro-4-[1-(3-fluorobenzyl)-1H-benzimidazol-6-yl]pyridin-2-yl}-3-oxocyclobutanecarboxamide], in that order: 78 nM and 73 nM.
For `CN1CC(C(=O)Nc2cc(-c3ccc4ncn(Cc5cccc(F)c5)c4c3)c(Cl)cn2)C1` [Example 192, N-{5-chloro-4-[1-(3-fluorobenzyl)-1H-benzimidazol-6-yl]pyridin-2-yl}-1-methylazetidine-3-carboxamide], in that order: 140 nM and 96 nM.
For `O=C1NC2CC(C(=O)Nc3cc(-c4ccc5ncn(Cc6cccc(F)c6)c5c4)c(Cl)cn3)CC2O1` (stereo not drawn) [Example 204, N-{5-chloro-4-[1-(3-fluorobenzyl)-1H-benzimidazol-6-yl]pyridin-2-yl}-2-oxohexahydro-2H-cyclopenta[d][1,3]oxazole-5-carboxamide], in that order: 270 nM and 56 nM.
Turning to `O=C(Nc1cc(-c2ccc3ncn(Cc4cccc(F)c4)c3c2)c(Cl)cn1)c1cn[nH]c1` [Example 208, N-{5-chloro-4-[1-(3-fluorobenzyl)-1H-benzimidazol-6-yl]pyridin-2-yl}-1H-pyrazole-4-carboxamide], the figures for the EC50 in the experiment with A431 cells and with H929 cells were 3500 nM and 38 nM, respectively.
With `CS(=O)(=O)Cc1cccc(Nc2cc(-c3ccc4ncn(Cc5cccc(F)c5)c4c3)c(Cl)cn2)c1` [Example 328, 5-chloro-4-[1-(3-fluorobenzyl)-1H-benzimidazol-6-yl]-N-{3-[(methylsulfonyl)methyl]phenyl}pyridin-2-amine], the 50% effective concentration (EC50) with H929 cells was found to be 1200 nM.
For the molecule `O=C(Nc1cc(-c2cc(F)c3ncn(CC4CCOCC4)c3c2)c(Cl)cn1)[C@@H]1CCCNC1` [Example 329, (3R)—N-{5-chloro-4-[4-fluoro-1-(tetrahydro-2H-pyran-4-ylmethyl)-1H-benzimidazol-6-yl]pyridin-2-yl}piperidine-3-carboxamide], the EC50 with H929 cells worked out at 280 nM.
On the same count and under the same terms, next, `CCOC(=O)NS(=O)(=O)N1CCC[C@@H](C(=O)Nc2cc(-c3ccc4ncn(CC5CCOCC5)c4c3)c(Cl)cn2)C1` [Example 330, ethyl {[(3R)-3-({5-chloro-4-[1-(tetrahydro-2H-pyran-4-ylmethyl)-1H-benzimidazol-6-yl]pyridin-2-yl}carbamoyl)piperidin-1-yl]sulfonyl}carbamate]: 6400 nM.
Still for that read-out and setting: for `Cn1cnc2ccc(-c3ccnc(NC(=O)[C@@H]4CCCNC4)c3)cc21` [Example 336, (3R)—N-[4-(1-methyl-1H-benzimidazol-6-yl)pyridin-2-yl]piperidine-3-carboxamide] the value was 480 nM; for `CC(C)(C)OC(=O)N1C[C@H]2CC(C(=O)Nc3cc(-c4ccc5ncn(CC6CCOCC6)c5c4)c(Cl)cn3)C[C@H]2C1` (stereo partly drawn) [Example 337, tert-butyl (3aR,6aS)-5-({5-chloro-4-[1-(tetrahydro-2H-pyran-4-ylmethyl)-1H-benzimidazol-6-yl]pyridin-2-yl}carbamoyl)hexahydrocyclopenta[c]pyrrole-2(1H)-carboxylate], 170 nM.
Still for that read-out and setting: for `CNC(=O)N1C[C@H]2CC(C(=O)Nc3cc(-c4ccc5ncn(CC6CCOCC6)c5c4)c(Cl)cn3)C[C@H]2C1` (stereo partly drawn) [Example 338, (3aR,6aS)—N^5-{5-chloro-4-[1-(tetrahydro-2H-pyran-4-ylmethyl)-1H-benzimidazol-6-yl]pyridin-2-yl}-N^2-methylhexahydrocyclopenta[c]pyrrole-2,5(1H)-dicarboxamide] the value was 200 nM.
As for `O=C(O)[C@H]1CC[C@@H](Nc2cc(-c3ccc4ncn(Cc5cccc(F)c5)c4c3)c(Cl)cn2)CC1` [Example 339, cis-4-({5-chloro-4-[1-(3-fluorobenzyl)-1H-benzimidazol-6-yl]pyridin-2-yl}amino)cyclohexanecarboxylic acid], the 50% effective concentration (EC50) in the experiment with H929 cells turned out to be 8900 nM.

The values above are taken from US9650358B2 (priority 2013, dated 2017).
